# Data: a collection of fitness landscapes (doi:10.1016/j.celrep.2020.107928)
# In all, about 81,000 sequences were measured (“one-hybrid fitness for binding NBS DNA”: median about -0.1, highest 2% from about 0.36 on). Some of the results follow.
# B1: Caulobacter ParB omega fusion; a variant is named by its letters at X, in order, B8GW30 (parent)
# chain: MESVVVGEPGMSEGRRGLGRGLSALLGEVDAAPAQAPGEQLGGSREAPIEILQRNPDQPRRTFREEDLEDLSNSIREKGVLQPILVRPSPDTAGEYQIVAGERAWRAAQRAGLKTVPIMVRELDDLAVLEIGIIENVQRADLNVLEEALSYKVLMEKFERTQENIAQTIGKSXSHVANXMRLLXLPDEVQSYLVSGELTAXHARAIAAAADPVALAKQIIEGGLSVRETEALARKAPNLSAGKSKGGRPPRVKDTDTQALESDLSSVLGLDVSIDHRGSTGTLTITYATLEQLDDLCNRLTRGI
# Variants of: B1
# Experiment: one-hybrid fitness for binding NBS DNA (the Noc-binding site; scaled: cognate 1, non-cognate 0); higher = stronger binding
# Settings: with NBS DNA site
# Summary of the method: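 Fitness is the rescaled log change in variant-to-wild-type read ratio, measured by Illumina sequencing of plasmids before and after bacterial one-hybrid selection. The scale puts cognate at 1 and non-cognate at 0. Selection of Caulobacter ParB libraries, four specificity codons randomised, took place in E. coli USO with a HIS3 reporter, site 19 bp from the promoter, over 48 hours at 37°C on M9-minus-histidine with 0.1 mM IPTG and 5 mM 3-AT.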
row,Variant,one-hybrid fitness for binding NBS DNA
1,FVIR,≤ 0.2
2,NPWC,≤ 0.2
3,PWIR,≤ 0.2
4,DGLC,≤ 0.2
5,EPYE,≤ 0.2
6,GLWC,≤ 0.2
7,HRPV,≤ 0.2
8,DDPN,≤ 0.2
9,PHTA,≤ 0.2
10,IYRL,≤ 0.2
11,QNDS,≤ 0.2
12,RGTF,≤ 0.2
13,EHPS,≤ 0.2
14,YMTL,≤ 0.2
15,LHLS,≤ 0.2
16,SSPG,≤ 0.2
17,RHAK,≤ 0.2
18,TNFT,≤ 0.2
19,KMAE,≤ 0.2
20,IAKV,≤ 0.2
21,QMRM,0.45
22,PSIL,≤ 0.2
23,HAYP,≤ 0.2
24,ISTV,≤ 0.2
25,PMAR,≤ 0.2
26,TVRI,≤ 0.2

row,Variant,one-hybrid fitness for binding NBS DNA
1,GCAN,≤ 0.2
2,DNQK,≤ 0.2
3,DSGG,≤ 0.2
4,KIPC,≤ 0.2
5,INHG,≤ 0.2
6,HAVG,≤ 0.2
7,AFWR,≤ 0.2
8,EGYC,≤ 0.2
9,GLSA,≤ 0.2
10,FRLM,≤ 0.2
11,SYYT,≤ 0.2
12,YNDG,≤ 0.2
13,GYVE,≤ 0.2
14,QRYC,0.296
15,QAVQ,0.32
16,FMDR,≤ 0.2
17,LTPK,≤ 0.2
18,CNRT,≤ 0.2
19,STSN,≤ 0.2
20,SEGG,≤ 0.2
21,RMTN,≤ 0.2
22,HKSK,≤ 0.2
23,GNMC,≤ 0.2
24,PRCP,≤ 0.2
25,DLVS,≤ 0.2
26,STKC,≤ 0.2

row,Variant,one-hybrid fitness for binding NBS DNA
1,HWAS,≤ 0.2
2,NCAS,≤ 0.2
3,LSAR,≤ 0.2
4,TIIC,≤ 0.2
5,WVIG,≤ 0.2
6,TGSP,≤ 0.2
7,YSNT,≤ 0.2
8,ASYA,≤ 0.2
9,HIWD,≤ 0.2
10,TSFL,≤ 0.2
11,RHCG,≤ 0.2
12,SQSM,≤ 0.2
13,HYTY,≤ 0.2
14,GIKL,≤ 0.2
15,HVSC,≤ 0.2
16,VEYL,≤ 0.2
17,YGNC,≤ 0.2
18,LHLR,≤ 0.2
19,RAKM,0.203
20,LVSL,≤ 0.2
21,WAMN,≤ 0.2
22,RIHE,≤ 0.2
23,ERFG,≤ 0.2
24,WTGW,≤ 0.2
25,LAAW,≤ 0.2
26,SGPK,≤ 0.2

row,Variant,one-hybrid fitness for binding NBS DNA
1,HDNC,≤ 0.2
2,HMYR,≤ 0.2
3,RKKF,≤ 0.2
4,HCEM,≤ 0.2
5,TPQY,≤ 0.2
6,VATL,≤ 0.2
7,ATNT,≤ 0.2
8,LRNG,≤ 0.2
9,SHYG,≤ 0.2
10,KMKS,0.225
11,TWEG,≤ 0.2
12,KRYS,0.447
13,VCNG,≤ 0.2
14,QHDH,≤ 0.2
15,LIDE,≤ 0.2
16,CRMR,≤ 0.2
17,RCFM,≤ 0.2
18,VAHV,≤ 0.2
19,SGTF,≤ 0.2
20,RLAG,≤ 0.2
21,FDES,≤ 0.2
22,NSMC,≤ 0.2
23,WTST,≤ 0.2
24,CTLV,≤ 0.2
25,FVDS,≤ 0.2
26,IKGS,≤ 0.2

row,Variant,one-hybrid fitness for binding NBS DNA
1,PGPM,≤ 0.2
2,NDSI,≤ 0.2
3,THSC,≤ 0.2
4,HFSC,≤ 0.2
5,TRMH,≤ 0.2
6,ASYN,≤ 0.2
7,TFGS,≤ 0.2
8,QQTM,≤ 0.2
9,HTRC,≤ 0.2
10,TFMT,≤ 0.2
11,SFYM,≤ 0.2
12,WIVA,≤ 0.2
13,LVDS,≤ 0.2
14,VYDD,≤ 0.2
15,CNNR,≤ 0.2
16,LEDL,≤ 0.2
17,SMYN,≤ 0.2
18,LMAL,≤ 0.2
19,PGLV,≤ 0.2
20,IRDS,≤ 0.2
21,GACR,≤ 0.2
22,YPQT,≤ 0.2
23,RRWY,0.36
24,ATVM,≤ 0.2
25,MNLF,≤ 0.2
26,QIDI,≤ 0.2

row,Variant,one-hybrid fitness for binding NBS DNA
1,NKSW,≤ 0.2
2,DRSA,≤ 0.2
3,RFGF,≤ 0.2
4,GKKR,0.254
5,TVTF,≤ 0.2
6,KVDR,≤ 0.2
7,SWNY,≤ 0.2
8,VGMM,≤ 0.2
9,PALL,≤ 0.2
10,NMSG,≤ 0.2
11,AEWG,≤ 0.2
12,NRWN,≤ 0.2
13,TRRV,≤ 0.2
14,LDMG,≤ 0.2
15,RINP,≤ 0.2
16,TTHL,≤ 0.2
17,RLPH,≤ 0.2
18,QTFV,≤ 0.2
19,IHGT,≤ 0.2
20,KCLG,≤ 0.2
21,ESPE,≤ 0.2
22,ETNF,≤ 0.2
23,GMIM,≤ 0.2
